Measurements as given in PubChem BioAssay AID504832 (National Center for Advancing Translational Sciences (NCATS), 2011).
Out of some 310,000 compounds screened, about 18,000 (5.8%) were called active. Inconclusive results, whose numbers are uncertain, are shown with a selection of clear calls. Calls follow the shape of the dose curve; as a rule, active = well fitted inhibition curve with a large enough effect; inconclusive = small, poorly fitted or top-dose-only effect, or another doubt; inactive = no such curve, though single readings can be large or run the other way. Potencies of inconclusive entries are left out as doubtful fits.

Test: Primary qHTS for delayed death inhibitors of the malarial parasite plastid, 48 hour incubation
Conditions: P. falciparum luciferase growth in erythrocytes; series mostly up to 28.7 µM; activity change, negative = inhibition: at the top concentration
Outline: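 First compound was added to culture medium, then infected red cells at 0.1% parasitemia and 2% hematocrit (final). After incubation at 37 C under 5% CO2, luciferase detection reagent was dispensed and light output recorded.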
% is scaled to controls: 0 for no effect and ±100 for the full control effect; potency is read from the fitted curve at half-maximal effect; tags tell the direction and shape of the fitted curve.

SMILES	Potency	activity change, negative = inhibition
O=C(CC1CCC1)NC(c1ccccc1)c1ccccc1	inconclusive [inhibitor, partial curve, poor fit]	
Cc1ccc(OCc2ccc(C(=O)NN)o2)c([N+](=O)[O-])c1		inactive: -15.2%
CN(C)C(=O)COC(=O)c1ccccc1OCC(=O)Nc1ccc(SC(F)F)cc1		inactive: 8.78%
COc1cc2c(cc1OC)C(c1cc3cc4c(cc3[nH]c1=O)OCO4)N(C(=O)C(C)C)CC2 (configuration not stated)	inconclusive [inhibitor, partial curve]	
Cc1cc(NC(=O)c2cc(-c3ccc(OC(C)C)cc3)nc3ccccc23)no1	inconclusive [inhibitor, single point]	
O=c1c2ccc([N+](=O)[O-])cc2ncn1CCOc1ccccc1	inconclusive [inhibitor, single point]	
CC(C)NC(=O)c1cc(C(=O)c2cc(Cl)ccc2O)coc1=N		inactive: -20.6%
Cc1ccnn1CC(=O)N/N=C/c1ccc2c(c1)OCO2		inactive: 13%
Cc1ccc(NC(=O)C2C3CCCC2C3c2ccccc2)cc1C (configuration not stated)		inactive: 8.02%
CC1(N(O)C=C2C=CC(=O)C=C2)CCCCC1=O (configuration not stated)		inactive: 9.45%
c1ccc2c(c1)OCC(CNc1ncnc3sccc13)O2 (configuration not stated)		inactive: -23.4%
O=C(O)CCN1C(=O)C2C3C=CC(C3)C2C1=O (configuration not stated)		inactive: -4.49%
COc1ccc(-c2cc(C(F)(F)F)nc(S(=O)(=O)CCCC(=O)Nc3cc(C)on3)n2)cc1OC	inconclusive [inhibitor, partial curve]	
Cc1cc(C(C)(C)C)oc1C(=O)N(CC(=O)NC1CCCC1)Cc1ccccc1Cl	inconclusive [inhibitor, single point]	
CC(C)C(NC(=O)C1CCCCC1)C(=O)NC1CCN(Cc2ccccc2)CC1 (configuration not stated)	inconclusive [inhibitor, full curve, poor fit]	
FC(F)(F)c1n[nH]c(=S)n1/N=C/c1ccco1		inactive: -2.39%
COc1ccc(C(C)C)cc1S(=O)(=O)NCCCn1ccnc1	inconclusive [inhibitor, partial curve, poor fit]	
S=c1[nH]nc(-c2ccc3ccccc3n2)n1-c1cc(Cl)cc(Cl)c1		inactive: 12.1%
CCN(CC)S(=O)(=O)c1ccc2oc(C(=O)NC(C)C)c(C)c2c1	inconclusive [inhibitor, partial curve]	
Cc1cc(=O)oc(C)c1C(=O)NC1CCCCCCC1	inconclusive [inhibitor, single point]	
O=c1oc2ccccc2c2c1nnn2CCO		inactive: 31.2%
O=C(Nc1ccccc1N1CCCCC1)c1cc(S(=O)(=O)N2CCOCC2)ccc1Cl	inconclusive [inhibitor, single point]	
Cc1ccc(N2C(=O)C(CN(C)C)C2c2ccccc2)cc1 (configuration not stated)	inconclusive [inhibitor, single point]	
COc1ccccc1-c1ccc2nnc(SCC(=O)N3CCCC3)n2n1	inconclusive [inhibitor, single point]	

SMILES	Potency	activity change, negative = inhibition
COc1ccc(/C=C2\CCc3c2nc2ccccc2c3C(=O)O)cc1OC		inactive: 48.5%
CC(C)OCCCN1CN(S(=O)(=O)c2ccc(Cl)cc2)c2nc3ccccc3nc21	inconclusive [inhibitor, single point]	
COc1ccc(/C=C/C(=O)c2ccccc2)cc1COc1ccccc1F	inconclusive [inhibitor, partial curve, poor fit]	
CN(c1cccc(NC(=O)CN(c2cccc(Cl)c2)S(=O)(=O)c2ccc(Cl)cc2)c1)S(C)(=O)=O	inconclusive [inhibitor, single point]	
CC(=O)Nc1cccc(OCC(=O)Nc2sccc2C(N)=O)c1		inactive: 96.9%
C=CCn1cnc2c(c1=O)c1nc3ccccc3nc1n2/N=C/c1cc(OC)c(OC)c(OC)c1	active: 3.7 µM	
COc1ccccc1N1CCN(C(=O)c2cc3cc(F)ccc3[nH]2)CC1	inconclusive [inhibitor, single point]	
O=C(NC1CCCC1)C(c1cccnc1)N(CCc1ccccc1)C(=O)c1ccco1 (configuration not stated)	active: 5.22 µM	
COc1ccc(C(=O)N2CCN(C3CCC(c4ccccc4)CC3)CC2)cc1OC (configuration not stated)	inconclusive [inhibitor, single point]	
N#CCC(=N)N1CCN(c2ccccc2)CC1	inconclusive [inhibitor, single point]	
COc1ccccc1NC(=O)CSCC(=O)N1c2ccccc2CCc2ccccc21	inconclusive [inhibitor, single point]	
C=CCN1C(c2ccc(Br)cc2)=CS/C1=C(/C#N)c1nnc(N2CCOCC2)n1-c1ccccc1	inconclusive [inhibitor, partial curve, poor fit]	
COc1ccc(NC(=O)NC23CC4(C)CC(C)(CC(C)(C4)C2)C3)cc1	inconclusive [inhibitor, partial curve, poor fit]	
CCCCn1c2ccc(C)cc2c2nnc(SCCN3CCCCC3)nc21	active: 13.1 µM	
CCN(CC)CC(O)CN1C(=O)NC(C)(C)C1=O (configuration not stated)		inactive: 9.73%
CCOC(=O)C1=C[C@@]2(CC)CCCN3CCc4c(n1c1ccccc41)[C@H]32	active: 6.01 µM	
COc1ccc([N+](=O)[O-])cc1N(CC(O)CN(CC(C)C)CC(C)C)S(=O)(=O)c1ccc(C)cc1 (configuration not stated)	inconclusive [inhibitor, partial curve]	
COc1ccc(CNC(=O)COc2cc(O)c3c(c2)OC(C)(C)CC3=O)c(OC)c1	inconclusive [inhibitor, partial curve]	
CCc1nnc(NC(=O)C2CCCN2S(=O)(=O)c2ccc(C)cc2)s1 (configuration not stated)	inconclusive [inhibitor, partial curve]	
COc1ccc(Cl)cc1Nc1nc(N)nc(C(F)(F)F)n1		inactive: 37%
Cc1cc2ccccc2n1CCNC(=O)Cc1ccccc1	inconclusive [inhibitor, single point]	
Cc1ccnc(Nc2nc(-c3ccc(F)cc3)cs2)c1		inactive: 0%
CSc1ccc(/C=N/NC(=O)CN2CCN(Cc3ccccc3)CC2)cc1		inactive: -1.9%
O=c1[nH]cc(S(=O)(=O)N2CCOCC2)c(=O)[nH]1		inactive: 49.9%

SMILES	Potency	activity change, negative = inhibition
COc1cc2ncnc(NCc3cccc(Cl)c3)c2cc1OC	inconclusive [inhibitor, single point]	
COc1ccc(OCC(O)CNCCNc2nccc(C(F)(F)F)n2)cc1 (configuration not stated)	inconclusive [inhibitor, single point]	
COc1ccc(OC)c(NC(=O)NCCCCc2ccccc2)c1	inconclusive [inhibitor, partial curve, poor fit]	
C=C(C)C1CC=C(C)/C(=N/NC(=O)CCCNc2cccc(C)c2)C1 (configuration not stated)	inconclusive [inhibitor, partial curve]	
N#C/C(=C\Nc1ccc(Cl)cc1)S(=O)(=O)c1ccccn1		inactive: -1.65%
COc1ccc(CNC(=O)CN2CCN(S(=O)(=O)c3cc(Br)ccc3Br)CC2)cc1OC	active: 10.4 µM	
COc1ccc(NC(=O)CC2C(=O)N(Cc3ccco3)C(=S)N2C(C)C)cc1 (configuration not stated)	inconclusive [inhibitor, single point]	
Cc1ccc(Cn2ncc3c(N4CCN(c5ccccc5C)CC4)ncnc32)cc1	active: 13.1 µM	
c1ccc2nc(SCc3cn4ccccc4n3)cnc2c1		inactive: 0%
O=C(N/N=C/C(Br)=C/c1ccccc1)c1cnccn1	inconclusive [inhibitor, full curve, poor fit]	
O=C(Cc1cccc(C(F)(F)F)c1)NCC(c1ccco1)N1CCCCC1 (configuration not stated)	inconclusive [inhibitor, single point]	
Cc1onc(-c2ccccc2Cl)c1C(=O)Nc1ccc2c(c1)OCO2	inconclusive [inhibitor, single point]	
Cc1onc(C(=O)NN)c1-c1csc(COc2ccccc2)n1	inconclusive [inhibitor, single point]	
O=C(COc1cccnc1[N+](=O)[O-])Nc1ccc2c(c1)CCC2	inconclusive [inhibitor, single point]	
Cc1nc(SCC(=O)NC(=O)NCc2ccco2)nc(C)c1C	inconclusive [inhibitor, single point]	
CC(=O)Nc1nnc(/C=C/c2cccc([N+](=O)[O-])c2)s1		inactive: -3.35%
O=C(O)CCC(=O)NNc1ccccc1[N+](=O)[O-]		inactive: -7.65%
COc1ccc(CCNC(=O)CCn2c(=O)[nH]c3cc(OC)c(OC)cc3c2=O)cc1OC	inconclusive [inhibitor, single point]	
Cc1ccc(NC(=O)N2CCCC2C(=O)NCc2ccccc2Cl)cc1 (configuration not stated)		inactive: -10.4%
CCOc1ccc(C(C(=O)NC(C)(C)C)N(CCOC)C(=O)CCC(=O)Nc2nccs2)cc1 (configuration not stated)	inconclusive [inhibitor, partial curve, poor fit]	
CCOC(=O)c1sc(NC(=O)c2cc(-c3ccc(C)cc3)nc3ccccc23)c(C#N)c1C	inconclusive [inhibitor, partial curve, poor fit]	
CCOC(=O)C1=C(N)OC2=C(C(=O)CC(C)(C)C2)C1c1ccc(CC)s1 (configuration not stated)		inactive: 23.7%
Cc1ccc(C)n1-c1ccc(C(=O)N/N=C/c2ccncc2)cc1	inconclusive [inhibitor, single point]	
FC(F)(F)c1cccc(-c2nc(-c3ccncc3)no2)c1	inconclusive [inhibitor, single point]	
